Among the data in PubChem BioAssay AID488969 (Vanderbilt High Throughput Screening Facility, 2010) are z-score values, retold here.

In all, about 110,000 compounds were measured (“z-score”: median about -0.1, highest 2% from about 2 on). The list shows a part of the results. Calls of active or inactive are those of the source.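 Rule for the calls: active = z-score in the third read window above 3 or below -3; inactive = the rest.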

The test addresses Metabotropic glutamate receptor 8 (Rattus norvegicus) (UniProt P70579). Description: rat mGluR8 modulators via GIRK flux, primary screen, cell-based, thallium flux, HTS (AID 488969). The note with it: HEK293 rat mGluR8, GIRK (G protein-gated inwardly rectifying potassium channel) thallium flux, FluoZin2; at 10 µM; stronger effect = higher value; submaximal glutamate (EC20) added with thallium.
Chain of UniProt P70579 (P70579 whole entry, looked up): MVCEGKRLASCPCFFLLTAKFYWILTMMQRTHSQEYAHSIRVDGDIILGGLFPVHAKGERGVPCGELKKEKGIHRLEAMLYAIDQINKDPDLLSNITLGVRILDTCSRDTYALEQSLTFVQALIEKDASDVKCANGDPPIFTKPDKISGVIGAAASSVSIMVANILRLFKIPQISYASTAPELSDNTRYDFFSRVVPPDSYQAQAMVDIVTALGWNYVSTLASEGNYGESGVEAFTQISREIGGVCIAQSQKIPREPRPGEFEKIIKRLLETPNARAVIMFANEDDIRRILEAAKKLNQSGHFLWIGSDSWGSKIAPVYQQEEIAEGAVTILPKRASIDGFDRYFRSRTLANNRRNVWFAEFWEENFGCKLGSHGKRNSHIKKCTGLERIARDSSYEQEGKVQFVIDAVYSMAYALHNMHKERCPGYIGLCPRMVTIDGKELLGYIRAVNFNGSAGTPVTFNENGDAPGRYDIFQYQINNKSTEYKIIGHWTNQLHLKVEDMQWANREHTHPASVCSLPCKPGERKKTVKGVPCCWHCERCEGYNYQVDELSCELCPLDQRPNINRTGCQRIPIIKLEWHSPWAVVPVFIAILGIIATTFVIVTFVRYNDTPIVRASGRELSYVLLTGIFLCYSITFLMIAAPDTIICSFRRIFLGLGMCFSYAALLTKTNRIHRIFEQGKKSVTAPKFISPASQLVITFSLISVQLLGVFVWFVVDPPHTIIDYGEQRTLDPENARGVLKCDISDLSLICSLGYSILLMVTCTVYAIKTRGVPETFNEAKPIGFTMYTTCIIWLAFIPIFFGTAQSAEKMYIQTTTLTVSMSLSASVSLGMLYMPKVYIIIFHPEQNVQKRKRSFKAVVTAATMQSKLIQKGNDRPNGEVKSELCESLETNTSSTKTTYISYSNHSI
Molecule `CN(C)S(=O)(=O)N(CC(=O)Nc1ccccc1F)c1ccccc1` displayed a z-score of 0.148.
For the molecule `Cc1cc(C)c2oc(-c3ccc(C)c(NC(=S)NC(=O)/C=C/c4ccco4)c3)nc2c1`, the z-score is -0.0423.
Molecule `CCc1cc2c(=O)n(-c3ccc(Br)cc3)cnc2s1` returned a z-score of 0.212.
`CN(C)/C=C/C(=O)c1cccc(Cl)c1`: the z-score was -0.138.
Consider `CCCCCNC(=O)Cc1cc(=O)[nH]c(=O)[nH]1`, for which the z-score stood at 0.717.
In turn, `CCOc1ccc(-c2cc(C(=O)N3CCN(c4ccccn4)CC3)c3ccccc3n2)cc1` came in with a z-score of -0.154.
With `O=S(=O)(c1cccc(-c2nn3c(-c4ccncc4)nnc3s2)c1)N1CCOCC1` the figure was -0.408.
With `O=c1cc(-c2ccccc2)nc(N2CCN(Cc3ccccc3)CC2)[nH]1` the figure was -0.524; with `Cc1cc(C(=O)c2ccccc2)nc2ccccc12`, -0.16; with `Cc1cccc(C)c1NC(=O)CCCSc1nnc(-c2ccc(Cl)cc2)n1-c1ccccc1`, -0.454.
In the case of `O=C(NCc1ccco1)C(c1ccccc1)N(C(=O)Cc1cccs1)c1ccccc1` (configuration not stated) it was -0.0636.
In the case of `CN1C(=O)C(O)(CC(=O)c2cccc(-n3cccc3)c2)c2ccccc21` (configuration not stated), the z-score was -0.617.
For the molecule `COc1cccc(NC(=O)COC(=O)/C=C/c2ccc(Cl)cc2Cl)c1`, the z-score was 1.31.
Take `CC(/C=C/c1ccccc1)=N\Nc1nc(-c2ccccc2)cs1`: the z-score is -0.00883.
`COc1ccc(NC(=O)c2cc(-c3cccnc3)nc3ccc(C)cc23)cc1OC` came in with a z-score of -0.00287.
The molecule `O=C(/C=C/c1cccs1)Nc1cccnc1` came in with a z-score of 0.00312.
`CC(C)c1ccc(NC(=O)C(c2ccccc2)N2CCC3(CC2)OCCO3)cc1` (configuration not stated) displayed a z-score of -0.627.
In the case of `CC(=O)c1cccc(NC(=O)N2CCCC2C(=O)NCCc2ccccc2)c1` (configuration not stated), the z-score came to 1.26.
On to `C=CCn1c(SCC(=O)Nc2nc(C)cs2)nnc1C(NC(=O)c1ccccc1)C(C)C` (configuration not stated), for which the z-score is -0.121.
Consider `CCOc1ccc2sc(NS(=O)(=O)c3ccc(OC)c(OC)c3)nc2c1`, for which the z-score was -0.157.
Regarding `COc1cc(NS(=O)(=O)c2ccc(NC(=O)C3CCCO3)cc2)nc(OC)n1` (configuration not stated), the z-score was -0.159.
In the case of `Cc1cccc(C(=O)NC(NCCc2ccccc2)C(Cl)(Cl)Cl)c1` (configuration not stated), the z-score is -0.429.
In turn, `Cc1ccc(/C(O)=C2/C(=O)C(=O)N(Cc3ccco3)C2c2cccs2)cc1` (configuration not stated) returned a z-score of -1.56.
For `CC(C)CCNC(=O)c1ccc(CSCc2cccc(F)c2)o1`, the z-score was active: -3.86.
In turn, `Cc1ccc(C)n1-n1c(C)nc2sc(-c3ccccc3)cc2c1=O` registered a z-score of -0.0272.
`Cc1nn(C)c(C)c1/C=N/N=C1\CCC2C3CCc4cc(O)ccc4C3CCC12C` (configuration not stated) showed a z-score of -0.0291.
The molecule `COc1ccc(N=C2SC(CC(=O)Nc3cccc(Cl)c3)C(=O)N2Cc2ccco2)cc1` (configuration not stated) yielded a z-score of -0.175.
`COC(=O)c1ccc(COC(=O)CNC(=O)c2ccc(-c3ccccc3)cc2)cc1`: the z-score was -0.148.
`CCC(=O)OCCCCCCOc1ccc(C(=O)O)cc1` registered a z-score of 0.0999.
With `CCOC(=O)C1CCCCN1Cc1cc(Cl)ccc1O` (configuration not stated) the figure was 0.343.
As for `O=C(Nc1nc2ccccc2s1)C1CC(=O)N(c2ccccc2)C1` (configuration not stated), the z-score is -0.411.
In the case of `Cn1c(SCC(=O)NC(=O)NCc2ccco2)nnc1C(F)(F)F` it was -0.0751; in that of `Cc1cc(C)nc(SCc2ccc(C(=O)NN=C3C4CC5CC(C4)CC3C5)cc2)n1`, -0.0309.
In turn, `CCOC(=O)N1CCN(C(=O)c2cnc3n(c2=O)CCS3)CC1` came in with a z-score of -0.303.
With `CC12CCC(C(=O)N(CC(O)CN3CCCCC3)C1=O)C2(C)C` (configuration not stated), the z-score worked out at 0.169.
Molecule `CCOc1nc(Nc2ccc(F)cc2)nc(N2CCN(c3ccc(OC)cc3)CC2)n1` displayed a z-score of -0.152.
In turn, `CN(C)C(=O)CCN1CCOCC1` came in with a z-score of -0.281.
With `CCN(CC)S(=O)(=O)c1ccc(-c2nnc(SCc3nnc(-c4ccc(C)cc4)o3)o2)cc1` the figure was -0.481; with `COc1ccc(S(=O)(=O)NC(C)C(=O)Nc2cccc([N+](=O)[O-])c2)cc1` (configuration not stated), -0.197.
With `Cc1ccc(C)c(Nc2c([N+](=O)[O-])cc(C(=O)N3CC(=O)Nc4ccccc43)cc2[N+](=O)[O-])c1` the figure was active: 4.62; with `COC(=O)C1=C(N)Oc2cc(C)n(Cc3ccccc3)c(=O)c2C1c1ccccc1` (configuration not stated), -0.192.
With `COc1ccc(Cl)cc1NC(=O)CCN1CCN(C)CC1` the figure was -0.0198; with `Cc1ccc(-c2nc(NC(=O)c3nn(C)cc3[N+](=O)[O-])sc2C)cc1`, -0.0697.
Molecule `CCC(C)(C)n1nnnc1C(c1ccc(C)cc1)N1CCN(Cc2cccnc2)CC1` (configuration not stated) returned a z-score of 0.0158.
In the case of `Cc1ccc(NCc2ccccc2OCc2ccccc2F)cc1` it was -0.0589; in that of `CCC(C)NS(=O)(=O)c1ccc(NC(=O)CCC2CCCCC2)cc1` (configuration not stated), -0.213.
With `COc1ccc(CCC(=O)N2CC(C)OC(C)C2)cc1` (configuration not stated) the figure was -0.365; with `COc1ccc(/C=C/C(=O)NCCCc2ccccc2)cc1`, -0.208.
In turn, `O=C(Oc1oc(-c2ccco2)nc1C=Nc1ccccc1)c1ccco1` displayed a z-score of -0.618.
The molecule `O=c1[nH]n2c(=O)c3c([nH]c2c1N=Nc1cccc(C(F)(F)F)c1)CCCC3` showed a z-score of -1.04.
For the molecule `CCOC(=O)C1CCCN(c2ncnc3c2[nH]c2cccc(OC)c23)C1` (configuration not stated), the z-score is -0.427.
For the molecule `Cn1c(=O)c2c(-c3ccccc3F)c3c(nc2n(C)c1=O)-c1ccccc1C3O` (configuration not stated), the z-score is -0.644.
The molecule `CCN(CC)C(=O)c1c(NC(=O)c2ccccc2)sc(C)c1C` registered a z-score of 0.187.
For the molecule `Brc1ccc(-c2cn3c(n2)CCc2ccc4cccnc4c2-3)cc1`, the z-score was determined as 0.098.
Molecule `O=C(Cn1nc(CNc2ccc(Cl)cc2)[n+]2c1CCCCC2)c1ccccc1` had a z-score of -0.17.
With `COc1ccc(C(=O)c2sc3nc(-c4ccccc4)ccc3c2N)cc1OC` the figure was -0.757; with `COC(=O)C(O)(CC(=O)Nc1ccc(Cl)cc1F)C(F)(F)F` (configuration not stated), -0.45.
In turn, `CN1CCN(S(=O)(=O)c2ccc(NC(=O)c3ccco3)cc2)CC1` gave a z-score of -0.12.
Molecule `COCCNC(=S)N1CCN(C(=O)C(=O)Nc2ccc(C(=O)OC)cc2)CC1` gave a z-score of -0.352.
The molecule `Cc1cccc(NC(=O)CSc2nnc(-c3cnccn3)n2Cc2ccco2)c1` displayed a z-score of -0.341.
In turn, `Cc1cccc(N(CC(O)CN(C)C)S(=O)(=O)c2ccccc2)c1` (configuration not stated) showed a z-score of 0.0348.
Regarding `Cc1c(-c2ccccc2)sc(Br)c1C(=O)N1CCOCC1`, the z-score is -1.13.
In the case of `O=S(=O)(c1ccc(OCC(O)CN2CCN(c3ccccc3)CC2)cc1)N1CCOCC1` (configuration not stated) it was 0.569.
In the case of `N/C(=N\OC(=O)c1ccc2ccccc2c1)c1ccc(Br)cc1` it was -0.416; in that of `CC(=O)Nc1nnc(SCc2ccccc2F)s1`, 0.164.
For the molecule `COc1ccc(OC)c(C2C3=C(COC3=O)Nc3cc4c(cc32)OCO4)c1` (configuration not stated), the z-score was -0.261.
Turning to `CC(C)NC(=S)N/N=C/c1c[nH]c2ccccc12`, the z-score is -0.251.
Take `Clc1ccc(CSc2ncn(-c3ccccc3)n2)cc1`: the z-score was -2.68.
In the case of `CCCCOc1ccc(S(=O)(=O)Nc2ccc(NC(C)=O)cc2)cc1` it was -0.437.
In turn, `CN(C)S(=O)(=O)c1ccc(C(=O)Nc2ccccc2[N+](=O)[O-])cc1` displayed a z-score of -0.419.
Take `Clc1ccc(/C=N/c2c(-c3ccc(Cl)cc3)nc3n2CCS3)cc1`: the z-score came out at 0.0627.
With `CC1CCCCN1C(=O)CSc1nc2ccsc2c(=O)n1Cc1ccccn1` (configuration not stated) the figure was -0.531; with `Cc1ccc(C=Nc2ccccc2C#N)s1`, -0.272.
Turning to `Cc1ccccc1Nc1c([N+](=O)[O-])ccc2c1=NC1(CCCCC1)N=2`, the z-score is -0.185.
`Cc1cc(C)c(C(=O)Nc2ccc(Br)c(C(F)(F)F)c2)c(C)c1` had a z-score of -0.0864.
With `Cn1c(SCC(=O)Nc2cccc(Br)c2)nnc1-c1cc2ccccc2o1` the figure was -0.0895.
`CCOc1ccccc1N(CC(=O)Nc1ccc(S(=O)(=O)N2CCOCC2)cc1)S(=O)(=O)c1ccccc1` yielded a z-score of -0.117.
In the case of `CCCC(=O)NCCc1nc2ccccc2n1CCC` it was -0.347.
In the case of `O=C(c1ccc(COc2c(F)c(F)cc(F)c2F)o1)N1CCN(c2ccccc2)CC1` it was -0.0675; in that of `Cc1nn(Cc2ccccc2)c(C)c1C(=O)NCCN1C(=O)S/C(=C\c2ccccc2)C1=O`, -0.302; in that of `Cc1cc(C)n2nc(NCc3cccc(Br)c3)nc2n1`, -0.295.
As to `O=c1c2c3c(sc2ncn1Cc1ccc(F)cc1)CCC3`, the z-score was -0.207.
In turn, `CCc1nnc(NC(=O)c2cccc(S(=O)(=O)N3CCN(c4ccccc4)CC3)c2)s1` displayed a z-score of 0.00976.
Molecule `CCOc1ccc(C(=O)Nc2cccc([N+](=O)[O-])c2)cc1Br` gave a z-score of -0.188.
Turning to `Cc1onc(-c2c(F)cccc2Cl)c1C(=O)Nc1cccc2nsnc12`, the z-score was determined as 2.67.
In turn, `Cc1sc2ncnc(-n3cnc4ccccc43)c2c1C` yielded a z-score of -0.181.
With `Cc1ccc(S(=O)(=O)Nc2cc(NC(=O)CN3CCOCC3)ccc2Cl)cc1`, the z-score was -0.264.
As to `O=S1(=O)N=C(N2CCN(Cc3ccc4c(c3)OCO4)CC2)c2ccccc21`, the z-score was -0.43.
On to `CC1CCN(CC(O)COc2cccc(F)c2)CC1` (configuration not stated), for which the z-score worked out at 0.03.
In turn, `COC(=O)c1cn(NC(=O)c2cccc(F)c2)c(=O)c2ccccc12` showed a z-score of 0.69.
Molecule `CC1(C)CC(=O)C(C=NCCN2CCN(CCc3ccccc3)CC2)=C(O)C1` returned a z-score of 0.0369.
With `COc1ccc(NC(=O)Nc2ccccc2OC)cc1` the figure was 1.3; with `CCn1c(-c2nn(C)c(C)c2Cl)n[nH]c1=S`, -0.461; with `CCOC(=O)c1ccccc1NC(=O)C=C(C)C`, -0.595.
In turn, `N#Cc1nc(COc2ccccc2)oc1NCCCn1ccnc1` yielded a z-score of -0.299.
As to `CCOC(=O)c1cc(S(=O)(=O)N2CCN(C(=O)OCC)CC2)cn1C`, the z-score is -0.144.
In the case of `COC(=O)c1nn(-c2ccc(C)cc2)c2nnc(Cc3ccccc3)c(=O)n12` it was -0.16; in that of `O=C(CCCC(=O)OCC(F)(F)C(F)F)Nc1ccc(NC(=O)CCCC(=O)OCC(F)(F)C(F)F)cc1`, -0.405.
The molecule `COc1ccc(C)cc1N(CC(=O)O)S(=O)(=O)c1ccc(C)cc1` came in with a z-score of -0.321.
In the case of `COc1ccc(/C=C(\C#N)c2nc3ccc(C)cc3[nH]2)cc1Oc1ccc(C(F)(F)F)cc1[N+](=O)[O-]` it was -0.0769; in that of `Cc1ccc2cc(CN(CCCN3CCOCC3)C(c3nnnn3Cc3ccco3)C(C)C)c(=O)[nH]c2c1C` (configuration not stated), -0.0138; in that of `CCOc1cc(S(=O)(=O)NCCc2ccc(OC)c(OC)c2)c(OCC)cc1-n1cnnn1`, -0.22.
`CC1CCCCN1C/C=C/c1ccccc1[N+](=O)[O-]` (configuration not stated): the z-score is -0.203.
As to `O=C1CC(c2c[nH]c3ccccc23)C(=O)N1c1ccccc1` (configuration not stated), the z-score came out at 0.0336.
On to `O=C(COc1ccc(Br)cc1)N1CCN(S(=O)(=O)/C=C/c2ccccc2)CC1`, for which the z-score is -0.057.
As for `O=C(Cc1c(F)cccc1Cl)N1CCCC1`, the z-score was determined as 0.183.
The molecule `CCCc1nc(N2CCCC2)c(C#N)c2c1CCCC2` showed a z-score of -0.133.
